Values quoted from earlier work, collected in US8076375B2 (priority 2005, dated 2011).

Settings: 50 μM, three cell-based assays; cited from earlier work

O=C(O)c1cc2c(cc1S(=O)(=O)O)C1C(C3C2C2(Cl)C(Cl)=C(Cl)C3(Cl)C2(Cl)Cl)C2(Cl)C(Cl)=C(Cl)C1(Cl)C2(Cl)Cl (stereo not shown) [Compound 270718-R, 3-sulfo-2-naphthoic acid-bis(hexachlorocyclopentadiene) adduct]
Growth inhibition in NCI/NIH-conducted cell assays: No growth inhibition
